In the supplement of paper PMC3334620:
In all, about 33,000 sequences were measured (“E-score (-0.5 to 0.5)”: median about -0.016, highest 2% from about 0.32 on). The list shows a part of the results.

molecular target: T1, Stp1 (UniProt B3LFK1); test: PBM E-score (8-mer binding enrichment) (E-score (-0.5 to 0.5)); higher = stronger / more preferred TF binding; most listed sequences are background and not binding sites; settings: protein concentration: 200 nM; construct: GST-full length
T1 sequence: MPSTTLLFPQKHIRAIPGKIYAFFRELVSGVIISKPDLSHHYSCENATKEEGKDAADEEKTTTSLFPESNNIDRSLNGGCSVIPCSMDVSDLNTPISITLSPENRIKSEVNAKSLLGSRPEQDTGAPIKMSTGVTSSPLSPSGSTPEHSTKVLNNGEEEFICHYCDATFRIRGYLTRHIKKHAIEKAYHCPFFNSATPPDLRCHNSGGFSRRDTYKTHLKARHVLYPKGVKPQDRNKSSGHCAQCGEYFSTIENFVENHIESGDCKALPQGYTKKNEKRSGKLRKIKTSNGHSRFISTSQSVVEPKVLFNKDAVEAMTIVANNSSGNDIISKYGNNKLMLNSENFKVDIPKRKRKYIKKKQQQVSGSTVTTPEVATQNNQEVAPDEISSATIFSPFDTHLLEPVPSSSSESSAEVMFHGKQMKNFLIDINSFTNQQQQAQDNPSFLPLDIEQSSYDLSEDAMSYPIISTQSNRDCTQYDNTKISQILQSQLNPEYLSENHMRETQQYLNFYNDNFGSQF
Method in brief: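 PURExpress in vitro transcription/translation supplied GST-tagged yeast transcription factors, either full-length or DNA-binding domain. Applied at about 100-200 nM to universal all-10-mer Agilent arrays double-stranded by primer extension, the bound protein was detected with fluorescent anti-GST. E-scores, modified Wilcoxon-Mann-Whitney statistics, were given by the Universal PBM Analysis Suite to ungapped eight-base words pooled with their reverse complements after masliner normalisation.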

| Sequence | PBM E-score |
| --- | --- |
| ACGATCCT | -0.246 |
| AACGCTAT | -0.0579 |
| CTGATTTC | 0.0319 |
| CAGGGCCA | -0.177 |
| TAATAAAA | 0.257 |
| GCCAAAAC | 0.00035 |
| CACACCCG | -0.0776 |
| CTCAGCCA | -0.145 |
| AACGGATT | 0.24 |
| CAGGATAA | -0.0944 |
| AGGTCCAA | -0.201 |
| CCAGGAAC | -0.333 |
| ATGCGGGG | 0.0301 |
| CTCATTTA | -0.0333 |
| CAATATTC | -0.0936 |
| AGACAGTC | -0.205 |
| AACTGAAG | -0.0544 |
| CCTCGGAG | -0.0591 |
| AGCCAGAA | -0.0789 |
| TCAAGGCA | -0.0413 |
| GCAATGGC | -0.116 |
| CAAGTGCC | 0.303 |
| ACGTTGTA | -0.0938 |
| GGGACACC | -0.188 |
| TACTGTGA | -0.14 |

| Sequence | PBM E-score |
| --- | --- |
| CTCGGGAC | -0.125 |
| ACGGTGCA | -0.00717 |
| ACTGGGCG | -0.188 |
| GCTTGAAC | 0.111 |
| CATCAGAG | -0.00661 |
| CCGGCGGA | 0.0459 |
| AGCAATCC | -0.114 |
| ACCGATAG | -0.222 |
| CCGGACCG | -0.179 |
| TACAAAGA | 0.0522 |
| ATTCTCTA | 0.149 |
| CCAGATGC | -0.172 |
| GACGCCCC | -0.00392 |
| ACACAAGT | 0.00705 |
| TAAGTCCA | -0.0485 |
| CGTGTTTC | -0.0574 |
| TCGCCGAA | 0.105 |
| GTAGATAA | 0.209 |
| ATATCAGA | 0.157 |
| TCCTCCGA | -0.286 |
| AAGCGTAG | -0.199 |
| AATGAGAT | 0.172 |
| ATAACCAG | -0.17 |
| ATCGCCAG | 0.0782 |
| CCAAAGAC | 0.0695 |

| Sequence | PBM E-score |
| --- | --- |
| CAGCGACG | -0.0819 |
| AGCTCCCT | -0.264 |
| GCTCTGGA | 0.178 |
| AGCGATCC | -0.185 |
| CAGGCATG | -0.0167 |
| AACGATGT | 0.0569 |
| CATAGAAA | 0.156 |
| GTTACGTA | -0.164 |
| ATGCAGGA | -0.258 |
| GCTAGACC | -0.276 |
| CCTGTACA | 0.0305 |
| ACGGAGGG | -0.0414 |
| AGCATGGC | 0.038 |
| CATGTGCA | -0.252 |
| AGTTACCA | 0.018 |
| CTTAAGTA | 0.0413 |
| CCAATTCA | 0.0182 |
| GGTAAATA | -0.0705 |
| CCACACAG | 0.0714 |
| ATACATAA | 0.102 |
| GCCATATA | 0.258 |
| CGCAAGAC | -0.0977 |
| AGGAGACG | -0.0946 |
| GCGGGATA | 0.0653 |
| AGAGCACA | -0.214 |

| Sequence | PBM E-score |
| --- | --- |
| TACGACCA | -0.136 |
| ACCTATAT | 0.196 |
| AATCGCTC | -0.292 |
| CCGGTAGA | -0.0825 |
| CAACCAGG | -0.196 |
| GAAGTATC | 0.144 |
| ACTGGGAA | -0.0304 |
| ACGTGAGT | -0.0754 |
| AAGTTATG | 0.127 |
| ATCTACGA | -0.159 |
| AATAATCA | 0.132 |
| CCATCGGC | -0.0531 |
| CTCTTCAC | -0.0918 |
| GCTTTTGA | -0.134 |
| CATCATGG | -0.188 |
| CAATTAGA | 0.0229 |
| CACGTGAC | -0.0745 |
| GCACGAGA | 0.0842 |
| GCCGGTTA | -0.0255 |
| CCGCGATA | -0.00263 |
| CATTTTAA | 0.251 |
| AGCTCCAG | -0.232 |
| CGCACGAA | 0.189 |
| AGCCCGAA | -0.133 |
| CAAGTCGA | -0.103 |

| Sequence | PBM E-score |
| --- | --- |
| GACTTCAA | -0.147 |
| CCGGTGTC | -0.246 |
| ACTTGGTG | -0.115 |
| ACAGCGTG | 0.0129 |
| AGAGAACT | -0.139 |
| ACCACTGC | -0.101 |
| AGGACGCA | -0.203 |
| CCCCGCGG | 0.199 |
| GGTCGCTA | -0.145 |
| AAGCTATG | -0.229 |
| GCACAACA | 0.0257 |
| TCGCTCCA | 0.0576 |
| ACTCGGAT | 0.0731 |
| GGTTTATA | 0.0512 |
| GATCGTCA | -0.204 |
| AAGAGCAG | -0.111 |
| GGACTGGA | -0.188 |
| AGGCTATA | -0.0231 |
| CATGATCA | 0.125 |
| TAAGAGTA | 0.0238 |
| CTGCATTA | -0.0491 |
| CCAGAGGC | -0.115 |
| CGACGCCC | 0.0245 |
| CCGCTTAA | 0.164 |
| ACCTGGGG | -0.285 |

| Sequence | PBM E-score |
| --- | --- |
| GCGATCCA | 0.00156 |
| AGACGCCA | 0.00574 |
| TACCTTCA | -0.0363 |
| CCAGCCAG | -0.336 |
| AGATATTA | 0.0622 |
| ACCCTGGG | -0.26 |
| AAACTCGG | -0.0615 |
| ACCTCCTG | -0.302 |
| CATCAGCC | -0.04 |
| AACGCGGG | 0.184 |
| AATGAAAC | 0.17 |
| CACCGAGG | 0.0169 |
| GATCAAGA | 0.124 |
| GCCGCCCC | 0.378 |
| AAGGAATT | 0.00384 |
| ACTGCAGC | -0.118 |
| ATCGGCAA | 0.106 |
| ACCGCCAC | -0.0221 |
| GTACATAA | 0.0315 |
| TGTCGACA | -0.185 |
| AGGTGAAG | -0.132 |
| ACAGATTC | 0.15 |
| GCACCGCA | 0.126 |
| AAAGAGTC | -0.265 |
| AAGTGTCT | -0.0515 |

| Sequence | PBM E-score |
| --- | --- |
| ATTTACAG | 0.149 |
| AAGCAGCT | -0.0912 |
| AGAGTCCC | -0.281 |
| ATGTGCAC | -0.13 |
| ATCTCTTA | -0.0224 |
| GGTAGACA | -0.213 |
| CTGCTGCC | 0.00135 |
| CCGCGCGC | 0.381 |
| ACCCAGTA | -0.223 |
| AACCGTGG | -0.00732 |
| GTGGAGTA | 0.0362 |
| ACGTCTCG | -0.102 |
| CATTAATA | 0.152 |
| GCATAGAA | 0.133 |
| CAAGCGAG | -0.0615 |
| CATCCCCA | -0.172 |
| AATAGAGA | 0.101 |
| ACGAACGG | 0.258 |
| ACGCTAGC | -0.408 |
| ATGGGAGC | -0.164 |
| TAGCCATA | -0.0174 |
| AAGAATTG | 0.0519 |
